# Measurements as given in paper PMC13657631, “Product-stabilized filamentation by human glutamine synthetase allosterically tunes metabolic activity” (eLife, 2026).
# How the values were obtained:
# [1] = molecular target: the molecule itself; assay: negative-stain electron microscopy; GS ~0.01-0.05 mg/mL in base buffer, 0.7% uranyl formate, 2D classification and averaging
# [2] = molecular target: the molecule itself; assay: cryo-EM structure; turnover conditions (5 mM ATP, 25 mM ammonium chloride, 50 mM glutamate), decamer particles; monomers to decamer
Protein,stoichiometry N [1],stoichiometry N [2]
"N-terminally His6-tagged human glutamine synthetase (enzyme, human glutamine synthetase; expression vector ordered from ATUM; also called His6-tagged GS; 6x HIS-conjugated human glutamine synthetase; source: E. coli BL21(DE3), purified (HisTrap, Superose 6 SEC); not shown: His6, N-terminal, kept) not shown",10,–
"human glutamine synthetase R298A (enzyme, human glutamine synthetase with R298A; also called loop variant R298A; source: E. coli, purified (His6-SUMO tagged GLUL variant, SEC); copies: 10) not shown",–,10
